Drawing on article PMC6212790, this text covers binding signal for 109 sequences.

Some of the results follow. At the low end of the ranking the order means little.

The target of the assay is T1, GST-Rok (full length) (UniProt O34857).
T1 sequence: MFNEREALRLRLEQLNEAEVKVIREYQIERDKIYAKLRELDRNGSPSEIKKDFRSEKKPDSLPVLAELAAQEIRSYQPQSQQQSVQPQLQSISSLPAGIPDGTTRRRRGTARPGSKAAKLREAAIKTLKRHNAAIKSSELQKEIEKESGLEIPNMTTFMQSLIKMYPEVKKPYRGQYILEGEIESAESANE
Nature of the assay: protein binding microarray.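 Note: rank score from −0.5 (least bound) to 0.5 (best bound).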 The note with it: Rok is a gene silencer of Bacillus subtilis; high values mean tight binding; most listed sequences are background and not binding sites; double strand, one strand shown.
With GGGGACCC, the binding signal is -0.373 E-score. For ACTTTTAT the value was 0.355 E-score; for CCCCGACG, -0.176 E-score; for ATGCTCGA, 0.00823 E-score. For ATATAGCC the value was -0.000533 E-score. Then AGTTGGGA, with -0.117 E-score; and GCGGTCTA, with -0.0867 E-score. GCAGGCCC registered a binding signal of -0.3 E-score. For the sequence CTAGAAAC, the binding signal was 0.3 E-score. GACCTATC displayed a binding signal of 0.187 E-score.

ATCATTGG gave a binding signal of 0.173 E-score. Then CATCACCA, with 0.0136 E-score; and AATCCTGA, with 0.048 E-score; and CAGGACTC, with -0.331 E-score. For the sequence CCGACATC, the binding signal is -0.0759 E-score. ATCTGAGC gave a binding signal of -0.0818 E-score.

The sequence CGACGTGA displayed a binding signal of 0.048 E-score. Then CATAGTAC, with 0.291 E-score; and ACAGTGCA, with -0.12 E-score. CCCGATCA: the binding signal is -0.15 E-score. Then GGCCAAAA, with -0.259 E-score; and ATACTCGG, with -0.0674 E-score; and ATCGTCTG, with -0.00651 E-score. The sequence CATCCGTC yielded a binding signal of -0.228 E-score. Then CGTCACGA, with -0.0523 E-score. The sequence ATAAATCC had a binding signal of 0.258 E-score. For CTCGGCGA the value was -0.139 E-score; for GAGATCGC, -0.185 E-score; for CGGTTTAC, 0.0457 E-score.

In turn, AGGAGCAT returned a binding signal of -0.156 E-score. For CTTCGCTC the value was -0.267 E-score; for CGGATAAC, 0.013 E-score.

Turning to CGGGATTA, the binding signal is -0.224 E-score. Then GGATACCC, with -0.103 E-score; and CCACACGA, with 0.00954 E-score; and CTATGGAC, with -0.114 E-score. Regarding CAGGTTCG, the binding signal was -0.342 E-score. For CATATGGG the value was -0.125 E-score. Then CGTACTTC, with 0.14 E-score. In turn, ACAGTAAG showed a binding signal of 0.116 E-score.

The sequence CGAGCACC yielded a binding signal of -0.249 E-score. AGGATCGG: the binding signal is -0.226 E-score. For ACTGAGCC the value was -0.225 E-score; for CCGTTCGA, -0.224 E-score; for TTAAATAA, 0.21 E-score.

The sequence CCAGTAAA returned a binding signal of -0.00743 E-score. Regarding AATGTACG, the binding signal was 0.192 E-score. In the case of GGGCAAAC, the binding signal was -0.0617 E-score. Turning to ACAGGAGC, the binding signal is -0.237 E-score. ACGAGTTA displayed a binding signal of 0.226 E-score. Turning to TACTTCAA, the binding signal is 0.252 E-score. The sequence CGCCTTAA showed a binding signal of -0.102 E-score. CCATATTC returned a binding signal of 0.138 E-score.

Regarding CTTTAACC, the binding signal was determined as 0.0828 E-score. Then AATGTAAT, with 0.326 E-score; and ATGGTTAG, with 0.0706 E-score; and CCCCTCGG, with -0.432 E-score. For CATGCGGA, the binding signal came to 0.0647 E-score. Then ACTCCGTG, with -0.0762 E-score; and CTTCTCGA, with -0.0858 E-score; and AAGCAATC, with 0.0982 E-score. The sequence ATCTGACG gave a binding signal of -0.0129 E-score. For CAGACAAA the value was 0.0401 E-score; for AAGTGATG, 0.177 E-score.

The sequence CCCCAACG registered a binding signal of -0.345 E-score. As to CCATCAAG, the binding signal was -0.215 E-score. For CGGTTGGC the value was -0.23 E-score; for CTGTAGCA, 0.175 E-score. The sequence CCCCTAGG yielded a binding signal of -0.319 E-score. For ATTATTTG, the binding signal was 0.157 E-score.

In the case of TAGGGTGA, the binding signal was -0.283 E-score. For CGATTCCC the value was -0.133 E-score; for AAAGTCTG, -0.00574 E-score.

ACGTGCCT gave a binding signal of -0.184 E-score.

Sequence ACGAGAAT had a binding signal of 0.00849 E-score.

With AATGTGGT, the binding signal was determined as 0.201 E-score. In turn, ATGTATGA came in with a binding signal of 0.139 E-score. For CTGTGACA the value was -0.0794 E-score; for GCCAAGAC, -0.115 E-score; for ATAACCTA, 0.141 E-score. In turn, CGGAACCG showed a binding signal of -0.184 E-score. For CCATATAG the value was 0.0758 E-score; for TCCAGAGA, -0.135 E-score; for GAGTAACA, 0.0733 E-score. The sequence AGGTATAA showed a binding signal of 0.322 E-score. GACAGACA registered a binding signal of 0.0826 E-score. For GAATTGGC the value was -0.183 E-score. For ACTGGTCT the value was -0.00744 E-score; for AACACTTG, 0.0557 E-score. Then AATCCTGG, with -0.0447 E-score; and CCATGGAC, with -0.0898 E-score. TCGTCGCA showed a binding signal of -0.0448 E-score.

Take ATTAAAGC: the binding signal is 0.131 E-score. Then ATCTAAGG, with 0.188 E-score. In the case of ATGTTTCC, the binding signal is 0.0873 E-score.

ACACACCG yielded a binding signal of 0.0452 E-score. As to ACAACCCG, the binding signal was -0.0973 E-score. Then AAGTAAAG, with 0.205 E-score. GTTAGCTA: the binding signal is 0.302 E-score. For GAAAGAAC the value was 0.0146 E-score; for ATCTAAAT, 0.152 E-score. For GCCATTTA the value was -0.0923 E-score; for CTACGACC, 0.0186 E-score. For ACATGTAC the value was 0.358 E-score.

In turn, ACGGCAAT yielded a binding signal of 0.146 E-score.

The sequence CGTGGCTC displayed a binding signal of -0.0956 E-score. In turn, ATGTTCTG registered a binding signal of 0.0912 E-score. For AGCCAACC the value was -0.122 E-score.

AACGTCGT gave a binding signal of 0.0347 E-score.
